Assay results from PMC12820563, “FoxP3 forms a head-to-head dimer in vivo and stabilizes its multimerization on adjacent microsatellites”.
The list shows a part of the results.

biological target: T1, MBP-FoxP1dN (Mus musculus, UniProt P58462 326-579); assay: PD-seq (MBP pull-down with sequencing); 20 mM Tris-HCl pH 7.5, 100 mM NaCl, 1.5 mM MgCl2, 0.4 uM protein, 0.1 uM dsDNA library, 30 min, room temperature, amylose pull-down; high values mean tight binding; details: protein: recombinant; tags: His6-MBP; chain copies: 2; dsDNA, one strand shown
T1 sequence: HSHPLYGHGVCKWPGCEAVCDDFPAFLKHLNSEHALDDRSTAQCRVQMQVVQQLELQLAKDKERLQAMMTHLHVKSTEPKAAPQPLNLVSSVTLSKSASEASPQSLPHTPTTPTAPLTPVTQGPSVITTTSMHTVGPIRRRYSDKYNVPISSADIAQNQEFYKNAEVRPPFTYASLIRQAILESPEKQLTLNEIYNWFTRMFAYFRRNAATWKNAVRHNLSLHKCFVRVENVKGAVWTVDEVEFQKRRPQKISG
Procedure, shortened: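 Binding is reads-per-million enrichment of pull-down over input, with replicates pooled. It comes from 30 min room-temperature incubation in Tris pH 7.5 buffer with NaCl and MgCl2 of 0.4 µM His6-MBP-tagged, N-terminally truncated mouse FoxP3 or FoxP1 fragment from E. coli with 0.1 µM Klenow-filled degenerate double-stranded DNA library, followed by amylose resin capture, three washes and Illumina sequencing of the released DNA.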

Sequence	binding signal
GATGATTGTTCTCCCAGCTGATGAATTCACGCACTCGAGTAAACAAATTTTCCTAATCTTTCTGTTCAAGCGCCATCTAC	1.1 RPM ratio (pull-down/input)
GATGATTGTTCTCCCAGCTGATGAATTTTGCGGTTCGAGTAAACAAATTTTCCTAATCTTTCTGTTCAAGCGCCATCTAC	0.956 RPM ratio (pull-down/input)
GATGATTGTTCTCCCAGCTGATGAATTCGGTCGATCGAGTAAACAAATTTTCCTAATCTTTCTGTTCAAGCGCCATCTAC	0.869 RPM ratio (pull-down/input)
GATGATTGTTCTCCCAGCTGATGAATTACCATTCTCGAGTAAACAAATTTTCCTAATCTTTCTGTTCAAGCGCCATCTAC	1.02 RPM ratio (pull-down/input)
GATGATTGTTCTCCCAGCTGATGAATTGGCGATTTCGAGTAAACAAATTTTCCTAATCTTTCTGTTCAAGCGCCATCTAC	0.865 RPM ratio (pull-down/input)
GATGATTGTTCTCCCAGCTGATGAATTGATCACATCGAGTAAACAAATTTTCCTAATCTTTCTGTTCAAGCGCCATCTAC	1.25 RPM ratio (pull-down/input)
GATGATTGTTCTCCCAGCTGATGAATTACACCTGTCGAGTAAACAAATTTTCCTAATCTTTCTGTTCAAGCGCCATCTAC	1.08 RPM ratio (pull-down/input)
GATGATTGTTCTCCCAGCTGATGAATTCACGGACTCGAGTAAACAAATTTTCCTAATCTTTCTGTTCAAGCGCCATCTAC	0.808 RPM ratio (pull-down/input)
GATGATTGTTCTCCCAGCTGATGAATTAGGATGGTCGAGTAAACAAATTTTCCTAATCTTTCTGTTCAAGCGCCATCTAC	0.877 RPM ratio (pull-down/input)
GATGATTGTTCTCCCAGCTGATGAATTAGCATATTCGAGTAAACAAATTTTCCTAATCTTTCTGTTCAAGCGCCATCTAC	1.07 RPM ratio (pull-down/input)
GATGATTGTTCTCCCAGCTGATGAATTCATACACTCGAGTAAACAAATTTTCCTAATCTTTCTGTTCAAGCGCCATCTAC	1.11 RPM ratio (pull-down/input)
GATGATTGTTCTCCCAGCTGATGAATTGGTTACGTCGAGTAAACAAATTTTCCTAATCTTTCTGTTCAAGCGCCATCTAC	1.04 RPM ratio (pull-down/input)
GATGATTGTTCTCCCAGCTGATGAATTTGTATCTTCGAGTAAACAAATTTTCCTAATCTTTCTGTTCAAGCGCCATCTAC	1.6 RPM ratio (pull-down/input)
GATGATTGTTCTCCCAGCTGATGAATTGTATAGATCGAGTAAACAAATTTTCCTAATCTTTCTGTTCAAGCGCCATCTAC	1.15 RPM ratio (pull-down/input)
GATGATTGTTCTCCCAGCTGATGAATTCATAGCATCGAGTAAACAAATTTTCCTAATCTTTCTGTTCAAGCGCCATCTAC	1.21 RPM ratio (pull-down/input)
GATGATTGTTCTCCCAGCTGATGAATTTCCTGTGTCGAGTAAACAAATTTTCCTAATCTTTCTGTTCAAGCGCCATCTAC	0.896 RPM ratio (pull-down/input)
GATGATTGTTCTCCCAGCTGATGAATTCACTATATCGAGTAAACAAATTTTCCTAATCTTTCTGTTCAAGCGCCATCTAC	0.909 RPM ratio (pull-down/input)
GATGATTGTTCTCCCAGCTGATGAATTCACACGATCGAGTAAACAAATTTTCCTAATCTTTCTGTTCAAGCGCCATCTAC	0.839 RPM ratio (pull-down/input)
GATGATTGTTCTCCCAGCTGATGAATTCTGGTCATCGAGTAAACAAATTTTCCTAATCTTTCTGTTCAAGCGCCATCTAC	0.82 RPM ratio (pull-down/input)
GATGATTGTTCTCCCAGCTGATGAATTTGTCTAGTCGAGTAAACAAATTTTCCTAATCTTTCTGTTCAAGCGCCATCTAC	0.997 RPM ratio (pull-down/input)

Sequence	binding signal
GATGATTGTTCTCCCAGCTGATGAATTTCCGTGGTCGAGTAAACAAATTTTCCTAATCTTTCTGTTCAAGCGCCATCTAC	0.762 RPM ratio (pull-down/input)
GATGATTGTTCTCCCAGCTGATGAATTTGATTCATCGAGTAAACAAATTTTCCTAATCTTTCTGTTCAAGCGCCATCTAC	0.937 RPM ratio (pull-down/input)
GATGATTGTTCTCCCAGCTGATGAATTGGCGTTCTCGAGTAAACAAATTTTCCTAATCTTTCTGTTCAAGCGCCATCTAC	0.872 RPM ratio (pull-down/input)
GATGATTGTTCTCCCAGCTGATGAATTGATGTGTTCGAGTAAACAAATTTTCCTAATCTTTCTGTTCAAGCGCCATCTAC	1.5 RPM ratio (pull-down/input)
GATGATTGTTCTCCCAGCTGATGAATTTGACGGCTCGAGTAAACAAATTTTCCTAATCTTTCTGTTCAAGCGCCATCTAC	0.753 RPM ratio (pull-down/input)
GATGATTGTTCTCCCAGCTGATGAATTGCATAGCTCGAGTAAACAAATTTTCCTAATCTTTCTGTTCAAGCGCCATCTAC	1.02 RPM ratio (pull-down/input)
GATGATTGTTCTCCCAGCTGATGAATTCGCCAATTCGAGTAAACAAATTTTCCTAATCTTTCTGTTCAAGCGCCATCTAC	0.869 RPM ratio (pull-down/input)
GATGATTGTTCTCCCAGCTGATGAATTACATCTGTCGAGTAAACAAATTTTCCTAATCTTTCTGTTCAAGCGCCATCTAC	1.04 RPM ratio (pull-down/input)
GATGATTGTTCTCCCAGCTGATGAATTGTTTGCCTCGAGTAAACAAATTTTCCTAATCTTTCTGTTCAAGCGCCATCTAC	1.96 RPM ratio (pull-down/input)
GATGATTGTTCTCCCAGCTGATGAATTACGCGTCTCGAGTAAACAAATTTTCCTAATCTTTCTGTTCAAGCGCCATCTAC	1 RPM ratio (pull-down/input)
GATGATTGTTCTCCCAGCTGATGAATTTCCATGGTCGAGTAAACAAATTTTCCTAATCTTTCTGTTCAAGCGCCATCTAC	0.791 RPM ratio (pull-down/input)
GATGATTGTTCTCCCAGCTGATGAATTTCGCAGCTCGAGTAAACAAATTTTCCTAATCTTTCTGTTCAAGCGCCATCTAC	0.828 RPM ratio (pull-down/input)
GATGATTGTTCTCCCAGCTGATGAATTTCTCTGATCGAGTAAACAAATTTTCCTAATCTTTCTGTTCAAGCGCCATCTAC	0.854 RPM ratio (pull-down/input)
GATGATTGTTCTCCCAGCTGATGAATTCGCCGAATCGAGTAAACAAATTTTCCTAATCTTTCTGTTCAAGCGCCATCTAC	0.874 RPM ratio (pull-down/input)
GATGATTGTTCTCCCAGCTGATGAATTGGGTTTCTCGAGTAAACAAATTTTCCTAATCTTTCTGTTCAAGCGCCATCTAC	0.842 RPM ratio (pull-down/input)
GATGATTGTTCTCCCAGCTGATGAATTTAGGGGATCGAGTAAACAAATTTTCCTAATCTTTCTGTTCAAGCGCCATCTAC	0.957 RPM ratio (pull-down/input)
GATGATTGTTCTCCCAGCTGATGAATTTCGCTGATCGAGTAAACAAATTTTCCTAATCTTTCTGTTCAAGCGCCATCTAC	0.874 RPM ratio (pull-down/input)
GATGATTGTTCTCCCAGCTGATGAATTTGCGTGTTCGAGTAAACAAATTTTCCTAATCTTTCTGTTCAAGCGCCATCTAC	1.2 RPM ratio (pull-down/input)
GATGATTGTTCTCCCAGCTGATGAATTTTTTCGCTCGAGTAAACAAATTTTCCTAATCTTTCTGTTCAAGCGCCATCTAC	0.942 RPM ratio (pull-down/input)
GATGATTGTTCTCCCAGCTGATGAATTTTTGAGATCGAGTAAACAAATTTTCCTAATCTTTCTGTTCAAGCGCCATCTAC	0.928 RPM ratio (pull-down/input)
